Measurements as given in patent US9580428B2, “Compositions and methods for inhibiting viral polymerase” (priority 2012, dated 2017).

What was measured:
[1] = tested on: Measles virus (MV), strain Chicago; test: microbe, parasite or virus in culture; conditions: Measles morbillivirus
[2] = tested on: Measles virus (MV), strain Chicago; test: microbe, parasite or virus in culture; conditions: Measles morbillivirus; remark: listed apart in the source
[3] = read-out: EC50 against the measles virus

Work on `Cl.Cl.Nc1ncnc2c([C@@H]3N[C@H](CO)[C@@H](O)[C@H]3O)c[nH]c12` [compound 12i, (2S,3S,4R,5R)-2-(4-amino-5H-pyrrolo[3,2-d]pyrimidin-7-yl)-5-(hydroxymethyl)pyrrolidine-3,4-diol dihydrochloride] yielded an EC50 [1] of 1.4 µg/mL, an EC50 [1, 3] of 1.4 µg/mL and an EC50 [2] of 0.6 µg/mL. For the same molecule, the EC50 [2, 3] was 0.6 µg/mL.

Where two headings read alike, the source gives them in different places.
